Test results from article PMC4336329 (PLoS ONE, 2015).
Hit rate of the full screen: of about 310,000 compounds, about 2,200 (0.71%) showed an effect of 50% or more. Effects have a minus sign here. Some of the results follow.

target: human ether-à-go-go-related gene (hERG) potassium channel (human, UniProt Q12809); experiment: primary screen, population patch clamp on CHO cells stably expressing hERG
Sequence (Q12809 whole entry, looked up): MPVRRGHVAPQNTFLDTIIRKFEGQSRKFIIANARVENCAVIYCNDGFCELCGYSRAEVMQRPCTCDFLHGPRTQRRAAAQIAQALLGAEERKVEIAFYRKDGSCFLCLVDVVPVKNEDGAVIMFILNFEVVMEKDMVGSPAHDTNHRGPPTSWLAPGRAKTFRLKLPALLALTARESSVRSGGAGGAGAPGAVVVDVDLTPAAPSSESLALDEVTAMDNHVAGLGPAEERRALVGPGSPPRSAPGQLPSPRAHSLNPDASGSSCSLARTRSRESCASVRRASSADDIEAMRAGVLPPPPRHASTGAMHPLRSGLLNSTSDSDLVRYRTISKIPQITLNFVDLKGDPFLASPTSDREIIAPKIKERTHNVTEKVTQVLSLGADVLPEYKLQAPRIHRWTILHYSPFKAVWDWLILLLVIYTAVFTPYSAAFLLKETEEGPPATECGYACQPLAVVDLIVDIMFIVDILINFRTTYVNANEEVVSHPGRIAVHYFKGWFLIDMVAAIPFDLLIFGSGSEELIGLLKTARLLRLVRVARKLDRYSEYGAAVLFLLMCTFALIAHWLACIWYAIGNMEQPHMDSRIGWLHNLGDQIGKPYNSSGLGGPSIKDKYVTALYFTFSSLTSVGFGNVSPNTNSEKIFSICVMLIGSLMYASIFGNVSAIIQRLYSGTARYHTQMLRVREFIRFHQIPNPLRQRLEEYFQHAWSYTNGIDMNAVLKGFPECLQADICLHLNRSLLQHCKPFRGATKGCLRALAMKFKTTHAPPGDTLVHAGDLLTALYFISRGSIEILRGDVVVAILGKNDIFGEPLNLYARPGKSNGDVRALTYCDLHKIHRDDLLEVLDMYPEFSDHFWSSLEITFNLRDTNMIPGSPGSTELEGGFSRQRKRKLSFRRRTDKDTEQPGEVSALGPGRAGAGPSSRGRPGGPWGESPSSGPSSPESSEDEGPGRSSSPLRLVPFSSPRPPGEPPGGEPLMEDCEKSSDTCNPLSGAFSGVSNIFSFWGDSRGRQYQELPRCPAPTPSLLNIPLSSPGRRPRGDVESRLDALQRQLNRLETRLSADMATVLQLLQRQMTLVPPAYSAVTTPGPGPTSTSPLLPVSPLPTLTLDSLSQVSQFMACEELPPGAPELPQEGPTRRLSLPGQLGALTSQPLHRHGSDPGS

Compound	hERG current change (%, negative = inhibition) at 1uM [%]
Cc1cc(C(=O)CSc2nc(N)cc(N)n2)c(C)n1C1CC1	4.34
COc1ccc(OS(=O)(=O)Cc2ccccc2)cc1	14
COC(=O)c1c(-c2ccccc2)c(-c2ccccc2)nn(C)c1=O	12.9
CCC1(C)NC(=O)N(/N=C/c2cc(OC)c(O)c(OC)c2)C1=O (stereo not drawn)	21.6
CCOC(=O)c1[nH]c2ccc(OC)cc2c1NC(=S)N1CCN(c2ccccc2OC)CC1	5.28
CCC1(C)OC(=O)N2CCc3c(C)[nH]c4c(C)ccc(c34)C21C (stereo not drawn)	11.7
COC(=O)c1ccc(Cn2cc(Cl)cn2)cc1	5.68
CCN(C(=O)c1ccc2c(c1)OCO2)C1CCS(=O)(=O)C1 (stereo not drawn)	6.88
Cc1cc(C(=O)N2CCN(C(=O)c3ccco3)CC2)ccc1[N+](=O)[O-]	-15.9
CCCCN(C(=O)c1ccc(-c2ccc([N+](=O)[O-])cc2)o1)c1c(N)n(CCCC)c(=O)[nH]c1=O	9.42
CCCOc1ccc(C(=O)N2CCN(c3ccc(NC(=O)CC)cc3Cl)CC2)cc1	-58.7
COc1ccc(S(=O)(=O)NNC(=O)Nc2ccc(F)cc2)cc1	8.76
O=C(O)CCC(=O)Nc1ccc(Br)cn1	6.26
S=c1[nH]nc(-c2ccc(Cl)cc2)n1-c1ccc(Cl)cc1	9.56
Cc1ccc(NNC(=O)CCc2ccccc2)c(C)c1	12.8
Cc1nnc(NC(=O)NC(C)N2C(=O)C3C4C=CC(C4)C3C2=O)s1 (stereo not drawn)	23.3
COc1cc2c(cc1OC)-c1cc(NCc3ccccn3)nc(=O)n1CC2	11.6
CCOC(=O)N1CCC(n2c(SCC(=O)NCCc3ccc(S(N)(=O)=O)cc3)nc3ccccc3c2=O)CC1	-1.77
Cc1cc2nc(-c3ccc(=O)[nH]c3)n(Cc3ccccc3)c2cc1C	-1.15
Cc1cc([N+](=O)[O-])ccc1NC(=O)c1ccco1	11.3
CC1CCCN(C(=O)c2ccc(NC(=O)CC3SC(N4CCCC4)=NC3=O)cc2)C1 (stereo not drawn)	8.1
Cc1cc(C)n(CCc2nc(-c3cccs3)cs2)n1	6.85
C=C1C(=O)O[C@H]2C[C@@H](C)[C@@H]3C=CC(=O)[C@@]3(C)C[C@H]12	10.8

Compound	hERG current change (%, negative = inhibition) at 1uM [%]
COc1cccc(-c2nnc(SCC(=O)N3CCCC3=O)n2-c2ccccc2)c1	5.18
N#C/C(=C\c1ccc2c(c1)OCCO2)C(=O)Nc1ccc(C(=O)O)cc1	13.9
CC(Sc1ccsc1[N+](=O)[O-])C(=O)NCc1ccco1 (stereo not drawn)	14.9
CN1CCN(c2ccc(S(=O)(=O)N3CCCCC3)cc2NC(=O)Cc2c(F)cccc2Cl)CC1	-7.39
Cc1cccc(OCCNC(=O)c2cc(-n3cnnc3)ccc2Cl)c1	8.11
CSc1ccccc1C(=O)N1CCCC(CNC(=O)c2ccc(F)cc2)C1 (stereo not drawn)	17.1
O=C1c2ccccc2C(=O)c2c1ccc1c(=O)n(-c3ccccc3)[nH]c21	1.19
Cc1ccc(/C=C/C(=O)Nc2ccncc2)o1	0.494
COc1ccc(C2CC(c3ccccc3)=NN2c2ccc(N)cc2)cc1 (stereo not drawn)	12.3
C/C(=N\N=c1/sc2ccccc2n1C)c1ccc(N2CCOCC2)cc1	13.2
Cc1ccc2c(c1)N(Cc1ccc3c(c1)OCO3)C(=O)C(C)O2 (stereo not drawn)	0.202
COC(=O)C(C)Sc1ncnc2c1nnn2-c1ccc(F)cc1 (stereo not drawn)	5.47
CCc1ccc(S(=O)(=O)Nc2cccc(-c3ccc4nnc(C)n4n3)c2)s1	-8.53
O=C(NCCO)C1COc2ccccc2O1 (stereo not drawn)	12.5
O=C(Nc1ccc(C(=O)N2CCCC2)cc1)c1ccccc1[N+](=O)[O-]	14.3
N#Cc1sc(NCc2ccccn2)nc1Cl	16.5
COc1ccccc1OCC#CCSc1ncccn1	17.6
Cc1ccc(S(=O)(=O)NCC(c2cccnc2)N(C)C)cc1 (stereo not drawn)	10.4
CCOc1ccc(NC(=O)c2cccnc2C(=O)O)cc1	13.3
Cc1ccccc1CSCCC(=O)NCCc1ccccc1	15
Cc1ccc(S(=O)(=O)Nc2cccc3ncccc23)s1	4.17
COc1cccc(Cn2nnc(C(=O)Nc3cc(C)ccc3OC)c2N)c1	8.48
